From paper PMC4336329 (PLoS ONE, 2015)
Among all 310,000 compounds or so, about 2,200 (0.71%) showed an effect of 50% or more. The effect is printed as a negative number. The list shows a part of the results.

These compounds were tested against human ether-à-go-go-related gene (hERG) potassium channel (human, UniProt Q12809) (assay: primary screen, population patch clamp on CHO cells stably expressing hERG).
human ether-à-go-go-related gene (hERG) potassium channel, sequence (Q12809 whole entry, looked up): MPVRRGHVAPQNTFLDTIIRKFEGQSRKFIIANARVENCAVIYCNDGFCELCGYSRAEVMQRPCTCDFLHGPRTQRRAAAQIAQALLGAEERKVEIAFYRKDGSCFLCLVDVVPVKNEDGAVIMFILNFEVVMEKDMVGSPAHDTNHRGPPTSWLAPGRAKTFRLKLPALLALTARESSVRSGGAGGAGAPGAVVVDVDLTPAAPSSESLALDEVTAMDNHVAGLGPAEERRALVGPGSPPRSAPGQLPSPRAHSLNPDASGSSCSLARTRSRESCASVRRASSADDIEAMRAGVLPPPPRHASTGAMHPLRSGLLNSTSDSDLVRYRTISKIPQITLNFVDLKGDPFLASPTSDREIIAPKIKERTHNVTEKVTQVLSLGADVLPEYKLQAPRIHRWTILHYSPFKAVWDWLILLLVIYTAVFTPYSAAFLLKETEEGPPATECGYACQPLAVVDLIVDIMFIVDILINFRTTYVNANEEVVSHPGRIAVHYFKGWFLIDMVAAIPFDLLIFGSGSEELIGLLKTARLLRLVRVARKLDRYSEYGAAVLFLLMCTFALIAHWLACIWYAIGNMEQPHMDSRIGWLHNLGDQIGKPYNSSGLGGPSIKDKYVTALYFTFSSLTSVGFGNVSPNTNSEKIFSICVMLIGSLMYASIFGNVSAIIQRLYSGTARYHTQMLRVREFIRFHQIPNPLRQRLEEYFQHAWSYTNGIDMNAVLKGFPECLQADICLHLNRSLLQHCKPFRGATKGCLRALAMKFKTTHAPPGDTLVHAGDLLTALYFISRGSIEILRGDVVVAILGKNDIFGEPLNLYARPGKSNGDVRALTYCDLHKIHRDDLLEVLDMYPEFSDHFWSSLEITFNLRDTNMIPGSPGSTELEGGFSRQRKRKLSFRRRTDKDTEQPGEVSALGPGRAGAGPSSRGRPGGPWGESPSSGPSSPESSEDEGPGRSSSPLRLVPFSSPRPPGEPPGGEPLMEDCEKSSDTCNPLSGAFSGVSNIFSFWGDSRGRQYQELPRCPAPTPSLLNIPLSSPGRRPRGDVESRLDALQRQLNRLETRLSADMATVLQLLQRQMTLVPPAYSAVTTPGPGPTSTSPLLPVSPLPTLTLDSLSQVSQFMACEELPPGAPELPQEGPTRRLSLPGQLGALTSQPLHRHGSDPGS

| Structure (SMILES) | hERG current change (%, negative = inhibition) at 1uM [%] |
| --- | --- |
| Cc1ccccc1NC(=S)NC(=O)COc1ccccc1C | 14.2 |
| COc1ccccc1N=Nc1ccc(N)c(C)c1 | 12.4 |
| CC(Oc1ccc(Br)cc1)C(=O)Nc1cc(Cl)ccc1N1CCN(C)CC1 (centres unmarked) | 12.2 |
| COCCNC(=O)c1ccc(CS(=O)(=O)c2ccc(OC)cc2)o1 | 8.32 |
| COc1cc(-c2nc(CN3CCN(c4ncccn4)CC3)c(C)o2)ccc1F | 4.25 |
| Cn1cc(Cl)c(/C=C(\C#N)S(=O)(=O)c2ccccc2)n1 | 9.02 |
| COCCNC(=O)C(C)OC(=O)c1cc2occc2n1C (centres unmarked) | 5.61 |
| COc1ccccc1C(=O)Nc1ccc2c(c1)C(=O)NC2=O | 4.53 |
| COc1ccc(/C=N/Nc2nnc(-c3ncc[nH]3)c3ccccc23)cc1 | 12.6 |
| CCCCOC(=O)Nc1ccc(S(=O)(=O)Nc2ccc([N+](=O)[O-])cc2)cc1 | 9.32 |
| Cc1ccc(-n2nc3c(=O)n(CC(=O)NCc4ccc(C)o4)nc(C)c3c2C)cc1 | 16.4 |
| O=C(CN1C(=O)COc2ccccc21)Nc1ccccc1F | 12.5 |
| CC(C)c1onc(C(=O)Nc2sc3c(c2C#N)CCC3)c1[N+](=O)[O-] | 12.5 |
| O=C(Nc1ccccc1F)c1cc(-c2ccco2)nc2ccccc12 | 15.6 |
| O=c1c2ccccc2nc(-c2ccc(F)cc2)n1NCc1ccccc1O | -9.05 |
| Cc1ccc(OCC(=O)NNC(=O)c2cc3ccccc3o2)cc1C | 11.2 |
| CCOC(=O)[C@H]1[C@H]2COc3ccc(Br)cc3[C@@H]2N2C(=O)CN(Cc3ccc(C)cc3)C(=O)[C@@]12C | 8.67 |
| COc1ccc(S(=O)(=O)NC(C(C)C)C(C)C)cc1OC | 2.63 |
| CCN(CCS(=O)(=O)c1ccc(Cl)cc1)C(=O)Nc1ccc(Cl)cc1 | -4.05 |
| CCCCn1c(=O)[nH]c(=O)c2c1nc(-c1ccc(CC)c([N+](=O)[O-])c1)n2C | 6.84 |
| O=C(/C=C/c1cccc(Cl)c1)N1CCC(Cc2ccccc2)CC1 | 3.8 |
| COC(CNS(=O)(=O)c1cc2c3c(c1)CCN3C(=O)CC2)OC | 17.5 |
| C[C@@]12CCC3[C@@](CCC4[C@@]3(C)CCC[C@@]4(C)C(=O)O)(CC1=O)C2 (some centres unmarked) | 6.51 |

| Structure (SMILES) | hERG current change (%, negative = inhibition) at 1uM [%] |
| --- | --- |
| CCN(CC(=O)Nc1ccccc1OC)C(=O)CSCC(=O)Nc1ccc(OC)cc1 | 10.4 |
| Cc1ccc(N/C(N)=N/c2nc(CSc3nnc(C)s3)cc(=O)[nH]2)c(C)c1 | 9.08 |
| COc1ccccc1CC(=O)Nc1ccc2c(c1)C(=O)NC2=O | 7.55 |
| CCOC(=O)C1CCN(C(=O)CN(c2ccc3c(c2)OCCO3)S(C)(=O)=O)CC1 | 1.17 |
| Cc1cccc(CN2CCN(C(=O)CCc3nnc(C4CCCCC4)o3)CC2)c1 | 4.62 |
| COC(=O)c1ccc(C2c3[nH]c4ccccc4c3C[C@H]3C(=O)N(C4CC4)CC(=O)N23)cc1 (some centres unmarked) | -0.703 |
| CCOC(=O)C(NC(=O)c1ccc(OC)cc1)(Nc1cc(C)on1)C(F)(F)F (centres unmarked) | 4.95 |
| Cc1nn(-c2ccccc2)c(N)c1C1(O)C(=O)Nc2ccccc21 (centres unmarked) | 7.74 |
| COC(=O)C1=C(C)NC(C)=C(C(=O)OCC2CCCO2)C1c1cccc(Cl)c1 (centres unmarked) | 12 |
| Cn1cc(S(=O)(=O)N2CCN(c3ccccc3F)CC2)c(=O)n(C)c1=O | 13.9 |
| CCC(C(=O)NCc1ccccc1OC)n1nc(C)n2c(cc3occc32)c1=O (centres unmarked) | 6.05 |
| O=C(Nc1ccncc1)c1ccc(N2CCCC2=O)cc1 | 2.38 |
| O=S(=O)(/N=C(/Nc1ccc(Cl)cc1Cl)c1ccccc1)c1cccs1 | 11.2 |
| CCOC(=O)C1=C(C)N(CCCCCC(=O)O)C(=O)NC1c1ccccc1OS(=O)(=O)c1ccc(C)cc1 (centres unmarked) | -6.08 |
| Cc1ccccc1Cn1nc(C)c(NC(=O)c2ccccc2)c1C | -3.28 |
| O=C(NCCc1ccc(F)cc1)c1cc2ccccc2oc1=O | 9.88 |
| CN(C)c1ccc(C(=S)N2CCOCC2)cc1Br | 5.44 |
| COc1ccc(NC(=O)CN(C)C(=O)c2ccc(N3CCCCCC3)c([N+](=O)[O-])c2)cc1 | -15.7 |
| Cc1cccc(-n2nnnc2SCC(=O)NCC2CCCO2)c1 (centres unmarked) | 7.81 |
| CCCSc1ncnc2sc(C)c(C)c12 | 2.67 |
| COCCn1c(SCC#N)nnc1-c1ccc([N+](=O)[O-])cc1 | -12.9 |
| C=CC1CN2CCC1CC2[C@@H](OC(=O)c1ccc(OC)cc1)c1ccnc2ccccc12 (some centres unmarked) | 6.91 |
| CCOC(=O)N1CCN(C(=O)CNC(=O)C23CC4CC(CC(C4)C2)C3)CC1 | 15.2 |

| Structure (SMILES) | hERG current change (%, negative = inhibition) at 1uM [%] |
| --- | --- |
| N#Cc1cccc(NC(=O)CC2CCCC2)c1 | 16.2 |
| CCOC(=O)N1CCC(NC(=O)Cn2cc3c(n2)CCC(C)C3)CC1 (centres unmarked) | 2.98 |
| Cc1cc(C)c(C#N)c(SCc2cn3ccccc3n2)n1 | 3.02 |
| Cc1oc2c(C)c(O)ccc2c(=O)c1-c1ccc2ccccc2n1 | 16.3 |
| Cc1cccc(C(=O)NCCC(=O)Nc2ccc(F)c([N+](=O)[O-])c2)c1 | 2.37 |
| O=C(CC1CCCCC1)NCc1nc(-c2ccccc2)no1 | 8.79 |
| CSc1nnc(C2CCCN2)n1C.Cl (centres unmarked) | 4.43 |
| CCOC(=O)C1=C(C)Nc2nnnn2C1c1c[nH]c2ccccc12 (centres unmarked) | 10 |
| O=C(O)Cc1c(C(=O)O)nnn1-c1cccc(C(F)(F)F)c1 | 9.73 |
| O=c1oc2ccccc2n1CCCCCn1c(=O)oc2ccccc21 | 2.86 |
| CCc1cc2c(CN3CCN(CC)CC3)cc(=O)oc2cc1O | 6.68 |
| CCC(C(=O)NC1CCCC1)N(C(=O)Cn1nnc(-c2ccc(C)o2)n1)c1cccc(OC)c1 (centres unmarked) | 6.28 |
| CN(Cc1ccccc1)C(=O)c1[nH]cnc1C(=O)N[C@@H](Cc1ccccc1)C(=O)OC(C)(C)C | 7.2 |
| CC(CCc1ccccc1)NC(=O)C(=O)NCCO (centres unmarked) | 0.364 |
| CC(C)NC(=O)/C(C#N)=C/c1ccc(N(C)C)o1 | 13.2 |
| CCCCS(=O)(=O)CC(COc1ccccc1)OC(=O)c1ccccc1 (centres unmarked) | 5.77 |
| CCNC(=S)N(CCc1ccc(S(N)(=O)=O)cc1)C1CC(=O)N(c2ccccc2)C1=O (centres unmarked) | 7.82 |
| c1ccc2c(c1)Cn1nnnc1-2 | 3.8 |
| CCOc1cc(/C=C\c2nc(O)c([N+](=O)[O-])c(=O)[nH]2)ccc1OC(C)C | 14.6 |
| CCC(OC(=O)c1nsc(Cl)c1Cl)C(=O)NCCOC (centres unmarked) | 4.67 |
| Cc1c(NS(=O)(=O)N2CCCCC2)c(=O)n(-c2ccccc2)n1C | 15.5 |
| COC(=O)c1ccc(NC(=O)c2ccc3nccnc3c2)cc1 | 11.4 |
| O=C(CCl)N=c1sccn1Cc1ccc(Cl)cc1Cl | 20.1 |

| Structure (SMILES) | hERG current change (%, negative = inhibition) at 1uM [%] |
| --- | --- |
| Cc1ccc(-c2cc(C(=O)Nc3cccnc3)c3ccccc3n2)s1 | 12.1 |
| O=C(NCCCN1CCOCC1)c1ccc(NC(=O)C2COc3ccccc3O2)cc1 (centres unmarked) | -6.89 |
| C=CCSC1=N/C(=C\c2cccnc2)C(=O)N1c1ccc(OC)cc1 | 12.1 |
| CC1CCCC(NC(=O)c2cc(S(=O)(=O)N3CCOCC3)ccc2F)C1C (centres unmarked) | -2.33 |
| O=C1N=NC(=O)N1c1ccccc1 | 11.4 |
| CN1CCCC(OC(=O)COc2ccc(Br)cc2)C1.Cl (centres unmarked) | -0.399 |
| CCc1nnc(NC(=O)C2=CCN(S(=O)(=O)c3ccccc3)CC2)s1 | 9.95 |
| COc1ccccc1N(CC(O)COc1ccc(C)cc1)S(=O)(=O)c1ccccc1 (centres unmarked) | 7.88 |
| O=C(c1ccco1)N1CCN(C2=NS(=O)(=O)c3ccccc32)CC1 | 1.87 |
| COC(=O)c1ccc(NC(=O)CCN2CCOCC2)cc1 | 6.71 |
| COc1ccc(CNCC(=O)Nc2cccc(S(N)(=O)=O)c2)cc1.O=C(O)C(=O)O | 6.54 |
| COc1ccc(NC(=O)Cc2c(Cl)cccc2Cl)cn1 | 8.99 |
| CCC(Cc1ccccc1)NC(=O)CSc1ccsc1[N+](=O)[O-] (centres unmarked) | 8.33 |
| CCN(CC)CCCN1C(=O)C(=O)/C(=C(/O)c2ccc3c(c2)OCCO3)C1c1ccco1 (centres unmarked) | 7.46 |
| CN(Cc1ccccc1)CC(O)COc1ccc(CNCCOc2cccnc2)cc1 (centres unmarked) | 12 |
| CCOC(=O)/C=C/[C@H]1CC2(CCO1)SCCCS2 | 6.05 |
| Cc1cccc(Nc2nnc(SC(C)C(=O)NC3CC3)s2)c1 (centres unmarked) | 1.34 |
| COC(=O)c1cc(Oc2ccc(C(=O)OC)cc2N)cc(C(=O)OC)c1 | 3.78 |
| C[C@H]1CC[C@@]2(O[C@@H](CCO)C[C@H](O)[C@H]2O)O1 | 15.3 |
| Cc1ccc(C(=O)NC(=S)Nc2ccc(NC(=O)c3cccc(Cl)c3)cc2)cc1 | 0.543 |
